Measured values from US8933202B2, “AXL antibodies” (U3 Pharma GmbH, priority 2007, dated 2015).

Target: T1, AXL (Homo sapiens, UniProt P30530)
T1 sequence (P30530 26-894): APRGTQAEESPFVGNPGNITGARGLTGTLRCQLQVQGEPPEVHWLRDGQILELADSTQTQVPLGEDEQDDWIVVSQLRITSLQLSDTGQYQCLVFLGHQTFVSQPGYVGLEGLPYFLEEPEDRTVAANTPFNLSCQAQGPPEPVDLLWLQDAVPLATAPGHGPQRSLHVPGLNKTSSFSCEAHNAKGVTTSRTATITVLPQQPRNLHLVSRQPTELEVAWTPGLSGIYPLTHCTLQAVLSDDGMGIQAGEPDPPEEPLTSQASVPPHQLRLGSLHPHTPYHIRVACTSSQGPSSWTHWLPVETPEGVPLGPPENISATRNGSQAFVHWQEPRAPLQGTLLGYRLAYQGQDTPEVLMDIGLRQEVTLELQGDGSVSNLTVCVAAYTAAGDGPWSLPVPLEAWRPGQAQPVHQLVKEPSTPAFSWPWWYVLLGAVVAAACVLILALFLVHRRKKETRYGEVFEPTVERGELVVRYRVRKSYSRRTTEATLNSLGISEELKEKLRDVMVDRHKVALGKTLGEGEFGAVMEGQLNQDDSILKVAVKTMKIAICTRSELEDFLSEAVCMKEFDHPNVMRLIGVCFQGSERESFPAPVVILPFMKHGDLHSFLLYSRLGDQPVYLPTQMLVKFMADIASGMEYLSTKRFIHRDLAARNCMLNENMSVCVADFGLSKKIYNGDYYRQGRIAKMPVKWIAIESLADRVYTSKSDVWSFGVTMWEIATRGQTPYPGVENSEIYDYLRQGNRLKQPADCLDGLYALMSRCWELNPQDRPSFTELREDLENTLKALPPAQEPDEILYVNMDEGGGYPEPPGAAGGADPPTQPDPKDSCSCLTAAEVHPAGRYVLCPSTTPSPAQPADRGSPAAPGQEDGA
Test: Axl phosphorylation ELISA, rat versus chimeric antibody
Type: cell-based
Set-up: endogenous in cells; host or cells: CaSki cervical cancer cells
Experimental: In order to investigate whether the rat anti-Axl antibodies of the invention and the corresponding chimeric anti-Axl antibodies of the invention were able to inhibit ligand Gas6-mediated Axl activation in vitro to similar extent, ELISA experiments on CaSki cervical cancer cells were performed. Gas6-mediated Axl activation was thereby detected by increased receptor tyrosine phosphorylation. In brief, on day 1, 3×10^4 cells per well were seeded in normal growth medium in flat-bottom 96 well plates. The next day, growth medium was replaced by serum-free medium to starve cells over night for 24 h. Also over night, black Maxi-Sorp 96 well plates (Nunc) were coated with mouse anti-phospho-tyrosine antibody 4G10 at 2 μg/ml PBS and 4° C. On day 3, the 4G10 antibody solution was removed and Maxi-Sorp wells were blocked with PBS, 0.5% BSA for at lest 4 h at room temperature. In parallel, cells were pre-incubated with 50 ng/ml, 100 ng/ml, 300 ng/ml, 750 ng/ml, 1 μg/ml, and 10 μg/ml of rat anti-Axl antibody 11B7 or chimeric anti-Axl antibody ch11B7 for 1 h at 37° C. and subsequently treated with or without 400 ng/ml Gas6 (R&D Systems) for 10 min at 37° C. […] Using a Victor plate reader (Perkin Elmer), the fluorescence of each well was collected at an excitation wavelength of 430 nm and an emission wavelength of 580 nm.

B1: ch11B7: chimeric anti-AXL antibody, derivative of rat 11B7 (antibody)
heavy: EVQLQESGPGLVKPSQSLSLTCSVTGYSITSNYWGWIRKFPGDKMEWMGYITYSGSTSYNPSLKSRISITRDTSKNQFFLQLNSVTSEDTATYYCAITTFYYWGQGVMVTVSS[left out - human IgG1 constant region]
light: DIQMTQAPSSLPASLGDRVTITCRASQDIGNYLRWFQQKPGKSPRLMISGATNLAAGVPSRFSGSRSGSDYSLTISSLESEDMADYYCLQSKESPWTFGGGTKLELKRTVAAPSVFIFPPSDEQLKSGTASVVCLLNNFYPREAKVQWKVDNALQSGNSQESVTEQDSKDSTYSLSSTLTLSKADYEKHKVYACEVTHQGLSSPVTKSFNRGEC
- ligand-induced Axl activation (relative Axl phosphorylation), concentration-dependent (50 ng/ml to 10 μg/ml antibody, 400 ng/ml Gas6, CaSki cervical cancer cells): able to block ligand-induced activation of the receptor tyrosine kinase Axl to similar extent
- ligand-induced Axl activation in melanoma cell line C-8161 (same experimental settings, C-8161): Comparable effects
